Test results from PubChem BioAssay AID588591 (National Center for Advancing Translational Sciences (NCATS), 2011).
Several values for one entry are separate records, joined by “and”; a condition that tells them apart may be missing. Equal entries are not always repeated. In all, about 390,000 compounds went through this assay and about 4,700 (1.2%) were called active. This list was built around the results that the source calls inconclusive (neither active nor inactive); the mix of calls is not that of the screen. The call rests on the fitted dose curve; in most records, active means well fitted inhibition curve with a large enough effect; inconclusive means small, poorly fitted or top-dose-only effect, or another doubt; inactive means no such curve, though single readings can be large or run the other way. Where the call is inconclusive, the potency comes from a doubtful curve fit.
Potency means the concentration at half of the fitted maximal effect; tags describe the fitted curve by direction and shape.

These molecules were tested against DNA polymerase eta (Homo sapiens) (UniProt Q9Y253) (assay: qHTS for Inhibitors of Polymerase Eta). Settings: recombinant Pol eta, fluorescent DNA replication assay; series mostly up to 114 µM.
Sequence of UniProt Q9Y253 (Q9Y253 whole entry, looked up): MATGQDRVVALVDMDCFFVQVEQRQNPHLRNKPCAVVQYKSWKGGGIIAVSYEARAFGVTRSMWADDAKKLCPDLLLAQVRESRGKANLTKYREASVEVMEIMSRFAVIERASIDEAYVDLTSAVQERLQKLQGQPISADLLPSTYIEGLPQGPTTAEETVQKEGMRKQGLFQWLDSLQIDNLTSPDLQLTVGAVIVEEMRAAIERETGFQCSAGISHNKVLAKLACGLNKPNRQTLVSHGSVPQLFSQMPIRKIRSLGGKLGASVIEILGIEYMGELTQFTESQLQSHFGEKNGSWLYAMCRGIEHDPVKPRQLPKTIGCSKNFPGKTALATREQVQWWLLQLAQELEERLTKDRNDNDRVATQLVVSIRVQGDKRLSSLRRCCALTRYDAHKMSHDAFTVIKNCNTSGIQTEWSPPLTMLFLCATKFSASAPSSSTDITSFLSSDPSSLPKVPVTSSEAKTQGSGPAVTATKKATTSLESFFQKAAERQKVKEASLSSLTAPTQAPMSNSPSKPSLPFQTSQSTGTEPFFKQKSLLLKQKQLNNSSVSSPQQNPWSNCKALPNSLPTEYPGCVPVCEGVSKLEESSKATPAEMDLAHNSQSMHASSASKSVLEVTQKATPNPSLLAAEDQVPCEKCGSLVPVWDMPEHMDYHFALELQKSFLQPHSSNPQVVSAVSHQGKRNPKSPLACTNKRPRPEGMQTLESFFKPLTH
Procedure, shortened: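 Pol eta (10 nM) was preincubated with compounds for 15 min at room temperature, after which fluorescent replication substrate (50 nM final) was added to start the reaction. Fluorescence was read kinetically at 0 and 10 min.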
In the case of COC(=O)c1cccc(-n2c(C)cc(/C=C3\SC(=O)NC3=O)c2C)c1, the Potency is reported as “inactive”.
For Cc1ccc(NS(=O)(=O)c2ccccc2Cl)c2c1CC(C)(C)O2, the Potency was inconclusive: 79.4 µM [inhibitor, partial curve, poor fit].
With CN(C)S(=O)(=O)c1cccc(NC(=S)Nc2ccc(Cl)cc2Cl)c1 the Potency was “inactive”.
For CCN1CCN(CCCNC(=O)c2ccc3c(c2)sc2nc(-c4ccc(OC)cc4)cn23)CC1, the Potency was inconclusive: 56.2 µM [inhibitor, partial curve].
With O=C(CCO)c1ccc(O)cc1 the Potency was active: 3.55 µM.
For COc1cc(Cl)cc(C(c2c(C(=O)O)[nH]c3ccccc23)c2c(C(=O)O)[nH]c3ccccc23)c1O, the Potency was inconclusive: 79.4 µM [inhibitor, partial curve].
With Cc1cc(=O)[nH]c(SCC(=O)NCc2ccco2)n1 the Potency was active: 3.16 µM.
O=C(O)Cc1sc(N/N=C\c2ccncc2)nc1-c1ccccc1 was tested, and the Potency was inconclusive: 89.1 µM [inhibitor, single point].
With CC[C@]12C(=O)N(C)C[C@H]([C@@H]3C(=O)N(Cc4ccccc4)C(=O)[C@@H]31)N2C(=O)c1ccccc1 the Potency was “inactive”.
N#C/C(=C\c1ccc(-c2cc(Cl)ccc2Cl)o1)C(=O)Nc1ccccc1C(=O)O was tested, and the Potency was active: 39.8 µM.
O=C(Nc1cccc(S(=O)(=O)NC2=NCCC2)c1)c1cc(-c2ccco2)nc2ccccc12 was tested, and the Potency was active: 10 µM.
O=C(O)c1cccc(-c2ccc(/C=N/n3cnnc3)o2)c1 was tested, and the Potency was inconclusive: 20 µM [inhibitor, full curve, poor fit].
With ClC(Cl)(c1nnnn1-c1ccccc1)c1nnnn1-c1ccccc1 the Potency was “inactive”.
Cc1ccc(OCc2nc3ccccc3n2Cc2ccccc2Cl)cc1 was tested, and the Potency was “inactive”.
In the case of Clc1cnc(Nc2cccnc2)c(Cl)c1, the Potency is reported as “inactive”.
With O=c1c(-c2c(O)cc(O)c3c2O[C@H](c2ccc(O)cc2)CC3)c(-c2ccc(O)cc2)oc2cc(O)cc(O)c12 the Potency was inconclusive: 56.2 µM [inhibitor, partial curve, poor fit].
O=c1c(S(=O)(=O)c2ccccc2)cn(Cc2ccc(F)cc2)c2cc(N3CCCCC3)c(F)cc12 was tested, and the Potency was “inactive”.
For Nc1nc(-c2ccco2)c(-c2ccco2)s1, the Potency was inconclusive: 39.8 µM [inhibitor, partial curve, poor fit].
With COc1ccc2c(c1)CCc1c(C(=O)Nc3c(C)nn(Cc4ccc(C)cc4)c3C)noc1-2 the Potency was “inactive”.
COc1cc(C(=O)/C=C/Nc2ccc(NC(C)=O)cc2)cc(OC)c1OC was tested, and the Potency was “inactive”.
In the case of COC(=O)C1C(=O)CC(C)(O)C(C(=O)OC)C1/C=C/c1ccccc1 (stereo not given), the Potency is reported as inconclusive: 89.1 µM [inhibitor, partial curve, poor fit].
In the case of O=C(c1ccc(=O)oc1)N1CCOCC1, the Potency is reported as active: 1.78 µM.
Cc1cccc(/C(N)=N/OC(=O)Cc2cccs2)c1 was tested, and the Potency was inconclusive: 39.8 µM [inhibitor, partial curve, poor fit].
CC(C)C(c1nnnn1CCc1ccccc1)N1CCSCC1 (stereo not given) was tested, and the Potency was inconclusive: 100 µM [inhibitor, partial curve, poor fit].
For COc1ccccc1CC(=O)Nc1ccc(-c2nnc(-c3ccco3)o2)cc1, the Potency was inconclusive: 28.2 µM [inhibitor, partial curve, poor fit].
For COc1ccc(CCN2CC(C(=O)OC(C)C(=O)Nc3ccc(NC(C)=O)cc3)CC2=O)cc1OC (stereo not given), the Potency was inconclusive: 17.8 µM [inhibitor, single point].
With CC(=O)Oc1ccc(C(=O)OCC(=O)c2c(N)n(C)c(=O)n(C)c2=O)cc1OC(C)=O the Potency was inconclusive: 20 µM [inhibitor, full curve, poor fit].
For Cc1ccc(-c2[nH]nc3c2C(c2ccoc2)C(C#N)=C(N)O3)cc1C (stereo not given), the Potency was inconclusive: 89.1 µM [inhibitor, partial curve, poor fit].
In the case of C/C(=N\NC(=O)c1ccc([N+](=O)[O-])cc1)c1c(O)cc(C)oc1=O, the Potency is reported as “inactive”.
For Cc1cc(=O)n(-c2ccc(C(=O)O)cc2)[nH]1, the Potency was inconclusive: 39.8 µM [inhibitor, single point].
In the case of Cc1cc(C)cc(OCC(=O)N2Cc3ccccc3CC2C(=O)O)c1 (stereo not given), the Potency is reported as inconclusive: 28.2 µM [inhibitor, full curve].
With COc1ccc(-c2cn3c(n2)sc2cc(C(=O)Nc4cc(Cl)ccc4C)ccc23)cc1 the Potency was inconclusive: 100 µM [inhibitor, single point].
Cc1ccc(-c2nc3s/c(=C\c4ccco4)c(=O)n3n2)cc1 was tested, and the Potency was active: 89.1 µM.
For CC(=O)Nc1ccc2c(c1)C(=Nc1cccc(C)c1)c1ccccc1-2, the Potency was inconclusive: 50.1 µM [inhibitor, partial curve, poor fit].
CCCCC(=O)NC1(C(F)(F)F)NC(=O)N(C)C1=O (stereo not given) was tested, and the Potency was inconclusive: 89.1 µM [inhibitor, partial curve, poor fit].
In the case of O=C(N1CCC(n2nc(-c3ccccc3)oc2=O)CC1)C1(c2ccc(Cl)cc2)CC1, the Potency is reported as inconclusive: 79.4 µM [inhibitor, partial curve, poor fit].
With CC(=O)Nc1cc(-c2ccc(F)cc2)[nH]n1 the Potency was inconclusive: 89.1 µM [inhibitor, partial curve, poor fit].
For COc1ccccc1OCCC(=O)OCC(=O)Nc1ncc(Cl)cc1Cl, the Potency was inconclusive: 28.2 µM [inhibitor, partial curve].
With COc1ccc(-c2cc(C(=O)Nc3ccc(Br)cc3)no2)cc1 the Potency was inconclusive: 89.1 µM [inhibitor, single point].
C/C(N)=C(/C#N)C(=O)CSc1nnc(COc2ccccc2Cl)o1 was tested, and the Potency was inconclusive: 12.6 µM [inhibitor, single point] and inconclusive: 28.2 µM [inhibitor, partial curve, poor fit].
For CCOC(=O)c1cc(-c2csc(-c3ccc(C(C)(C)C)cc3)n2)on1, the Potency was inconclusive: 44.7 µM [inhibitor, partial curve, poor fit].
With CCc1nnc(NC(=O)c2ccc(-c3ccc(Cl)cc3)o2)s1 the Potency was inconclusive: 11.2 µM [inhibitor, partial curve].
Cc1nnc(NC(=O)/C=C/c2ccco2)s1 was tested, and the Potency was inconclusive: 14.1 µM [inhibitor, full curve, poor fit].
In the case of COc1ccc(NC(=O)c2nc(SC)ncc2Cl)cc1, the Potency is reported as inconclusive: 89.1 µM [inhibitor, partial curve, poor fit].
With CN1CCN(C(=O)Nc2cccc(Cl)c2)c2cccnc21 the Potency was “inactive”.
With C#CCOCCOCCOCCNc1nc(N2CCN(C(=O)CCCCCCCCCCNC(=O)[C@H](CCCCN)n3cc(CCCC(=O)O)nn3)CC2)nc(N2CCN(C(=O)CCCCCCCCCCNC(=O)[C@H](CCCN=C(N)N)n3cc(C[C@@H](C)CC)nn3)CC2)n1 the Potency was inconclusive: 89.1 µM [inhibitor, partial curve].
COC(=O)c1cnn2c(C(F)(F)F)cc(-c3ccco3)nc12 was tested, and the Potency was active: 20 µM.
In the case of COCCCN1C(=O)C2C(C(=O)Nc3cc(C)cc(C)c3)C3C=CC2(O3)C1C(=O)NC1CCCCC1 (stereo not given), the Potency is reported as active: 22.4 µM.
For Nc1cccc2[nH]c(=O)c3ccccc3c12, the Potency was inconclusive: 35.5 µM [inhibitor, partial curve, poor fit].
Cc1cc(Cl)n2c(nc3ccccc32)c1C#N was tested, and the Potency was active: 39.8 µM.
O=[N+]([O-])c1ccc(/C=N/N=C/c2ccc([N+](=O)[O-])o2)o1 was tested, and the Potency was inconclusive: 50.1 µM [inhibitor, partial curve].
For CC1(C)CC(=O)C(C=Nc2ccc(O)c(N=CC3=C(O)CC(C)(C)CC3=O)c2)=C(O)C1, the Potency was inconclusive: 22.4 µM [inhibitor, full curve, poor fit].
With CCOc1ccc(Cl)cc1C1CC(=O)Nc2cc(OC)c(OC)c(OC)c21 (stereo not given) the Potency was “inactive”.
For COc1ccc(Cc2nnc(N/N=C/c3ccccc3O)[nH]c2=O)cc1OC, the Potency was inconclusive: 70.8 µM [inhibitor, partial curve, poor fit].
For CCOc1ccc(C(=O)NCC(=O)N2CCC3CCCCC3C2)cc1OCC (stereo not given), the Potency was “inactive”.
In the case of O=C(CCC(=O)N/N=C/c1c[nH]c2ccccc12)NCc1ccccc1, the Potency is reported as inconclusive: 70.8 µM [inhibitor, partial curve, poor fit].
N=c1c(C(=O)NCc2ccccc2)cc2c(=O)n3ccccc3nc2n1Cc1ccco1 was tested, and the Potency was inconclusive: 20 µM [inhibitor, single point].
CC(C)c1cc(C(=O)OCC(=O)NC(=O)NCc2ccco2)c(O)c(C(C)C)c1 was tested, and the Potency was inconclusive: 35.5 µM [inhibitor, partial curve, poor fit].
In the case of O=C1CCCCCC1C1(O)C(=O)Nc2ccccc21 (stereo not given), the Potency is reported as inconclusive: 22.4 µM [inhibitor, partial curve, poor fit].
N#Cc1c(C(F)(F)F)cc(-c2cccs2)nc1SCc1cccnc1 was tested, and the Potency was inconclusive: 56.2 µM [inhibitor, partial curve, poor fit].
For O=C(Cn1c2ccccc2c(=O)c2ccccc21)Nc1ccccc1F, the Potency was inconclusive: 14.1 µM [inhibitor, partial curve, poor fit].
Fc1ccc(C2CC(c3cccs3)=NN2C(=S)Nc2ccccc2)cc1 (stereo not given) was tested, and the Potency was inconclusive: 89.1 µM [inhibitor, single point].
With CCCCn1c(CN2C(=O)c3ccccc3C2=O)nc2ccccc2c1=O the Potency was inconclusive: 14.1 µM [inhibitor, partial curve, poor fit].
O=C(Nc1nc(-c2ccccn2)cs1)c1cc(Cl)ccc1[N+](=O)[O-] was tested, and the Potency was “inactive”.
For O=C(OCc1cc(=O)n2nc(-c3cccs3)sc2n1)c1ccc(F)cc1, the Potency was inconclusive: 50.1 µM [inhibitor, partial curve].
